PubChem BioAssay (NCI)
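Briefly, cells in 96-well plates were exposed to five compound concentrations for 48 h, and endpoints were estimated by linear interpolation. Here, GI50 denotes the concentration required for 50% inhibition of growth. The concentration for full growth arrest is given as TGI.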

System: NCI-H322M lung
Experiment: DTP human tumour cell line panel, 48 h

SMILES	GI50	TGI
CCN1CCN(c2ccc(NC(=O)Nc3ccc(-c4cc(C(=O)NC(C)C)c5ncccc5n4)cc3)cc2C(F)(F)F)CC1	1.85 µM	7.24 µM
COc1ccc(C(=O)/C=C/c2ccc(OC)c(OCc3ccccc3)c2)cc1OC	3.77 µM	> 100 µM
